2 molecules from ChEMBL document CHEMBL3272345, “Specificity in enzyme inhibition. 3. Synthesis of 5-substituted 2,2-dimethyl-4-imidazolidinones as inhibitors of tyrosine decarboxylase and histidine decarboxylase” (1976) can be followed below.

The structures appear in SMILES notation.

The subject of this test is Clostridium. Description: Inhibition of Clostridium welchii histidine decarboxylase assessed as 14CO2 production using L-histidine as substrate at 5 mM after 20 mins by scintillation counting analysis.

A word on the inhibition: it is the change of the read-out against control, counted positive when it falls. As for `CC1(C)NC(=O)[C@H](Cc2c[nH]c3ccccc23)N1`, the inhibition was 2%.
Turning to `CC1(C)NC(=O)[C@H](Cc2cnc[nH]2)N1`, the inhibition was 44%.
